# Experimental data as given in article PMC7819943, “Rice protein-binding microarrays: a tool to detect cis-acting elements near promoter regions in rice”.
# This is one part of the list.
# Target: T1, OsWOX13 (Oryza sativa, UniProt Q5QMM3 1-267)
# T1 sequence: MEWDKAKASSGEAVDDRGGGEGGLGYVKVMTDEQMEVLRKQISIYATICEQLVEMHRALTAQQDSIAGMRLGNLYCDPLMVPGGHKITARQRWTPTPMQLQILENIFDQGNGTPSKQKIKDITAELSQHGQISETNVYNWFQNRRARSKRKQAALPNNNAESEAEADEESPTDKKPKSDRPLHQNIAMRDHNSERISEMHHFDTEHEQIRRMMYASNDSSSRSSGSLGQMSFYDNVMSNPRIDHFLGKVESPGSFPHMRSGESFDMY
# Assay: protein-binding microarray (RPBM); PBS, 2% BSA, 51.3 ng/ul salmon testes DNA, 50 uM zinc acetate, 200 nM TF, 25 C, 1 h; high values mean tight binding
# Conditions: protein: recombinant; tags: N-terminal polyhistidine and DsRed monomer fusion (pET32a); label: CyDye5-dUTP incorporated in the synthesized complementary strand; 3' TTTTT single-stranded linker to array surface; dsDNA, one strand shown
# In short: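 For the binding signal, per-feature fluorescence intensity was read in arbitrary units on an Axon 4000B scanner. Before scanning, a 2% BSA-blocked custom Agilent array made double-stranded with Cy5-dUTP was washed after 1 h at 25 °C with 200 nM protein and 50 µM zinc acetate. The proteins were Ni–NTA-purified transcription factors with N-terminal polyhistidine and DsRed fusions, expressed in E. coli BL21-CodonPlus.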
row,Sequence,binding signal
1,CGTCAATCTCGCATCAGAAGGTCTCCACCTGTCCCACGTGCGGAGTCACCTAGTGCAG,4500 fluorescence intensity (a.u.)
2,AATTATATACTAATTACATATGTAAGTGGGGTGTAAATGACGGAGTCACCTAGTGCAG,6890 fluorescence intensity (a.u.)
3,AATTGTCATCTTGTGGTCCAATCAATCCATGTATTTTCTTCGGAGTCACCTAGTGCAG,3510 fluorescence intensity (a.u.)
4,TAACAAATTAAAGTCTAACTAGTATATACATATATTCAGACGGAGTCACCTAGTGCAG,4350 fluorescence intensity (a.u.)
5,CACTGATGACAGACACATCCAACAATCTCAATATTACTAGCGGAGTCACCTAGTGCAG,19600 fluorescence intensity (a.u.)
6,CGCACGTGATTCGTCGGAAGTATGTTTCTTTACATGCCTACGGAGTCACCTAGTGCAG,20400 fluorescence intensity (a.u.)
7,GTTGATTGTTAGTGCATATTTATATATATATTCAGGATTTCGGAGTCACCTAGTGCAG,44400 fluorescence intensity (a.u.)
8,AGTTAAATTATTGTCCTCTTAATTTCTGTCACGGTGTCACCGGAGTCACCTAGTGCAG,26100 fluorescence intensity (a.u.)
9,ATTTGTCTACCCAAGATGATTGGAGCCACACGTCGGTCAGCGGAGTCACCTAGTGCAG,12800 fluorescence intensity (a.u.)
10,TTTGCTTCACATAATCACGAAGCAGATTGCCGAAAGGGTTCGGAGTCACCTAGTGCAG,3850 fluorescence intensity (a.u.)
11,ACCATCAAATTAAATTTATAATGGGATGATCCAATTAATCCGGAGTCACCTAGTGCAG,18800 fluorescence intensity (a.u.)
12,CTGATTGTTTGTGCTTCTGTTTCCCCTGAGGACAATGAACCGGAGTCACCTAGTGCAG,23600 fluorescence intensity (a.u.)
13,CAGAGCCAGTGATTGGAGGGTGGAGAGGGCTCCAATAATCCGGAGTCACCTAGTGCAG,13600 fluorescence intensity (a.u.)
14,CTTTAATTTATGTATTGTGTTCAATGCTTCAATCACTTGACGGAGTCACCTAGTGCAG,19200 fluorescence intensity (a.u.)
15,ATGTCAATTTGCCACATCACGGTAACAACTTGAAGTACACCGGAGTCACCTAGTGCAG,13100 fluorescence intensity (a.u.)
16,GATTGATTTGAAACCAATTCATTGGTATTACCTAATCTAGCGGAGTCACCTAGTGCAG,43800 fluorescence intensity (a.u.)
17,ACGTGTACGGCGCGGGGTGGAGGTGAGGGGTGGTGGGGCCCGGAGTCACCTAGTGCAG,5960 fluorescence intensity (a.u.)
18,TTCAAATGGCATTAATTACAAAGGGAACGTAACTCATCTGCGGAGTCACCTAGTGCAG,18700 fluorescence intensity (a.u.)
19,GAAAATAGTATGATTGAAAATGACGTAAAGTGAATAGACCCGGAGTCACCTAGTGCAG,23000 fluorescence intensity (a.u.)
20,TTATTAACTGATGATCATCTACATGGTTGTTCTTACACTGCGGAGTCACCTAGTGCAG,32700 fluorescence intensity (a.u.)
21,ATTCATTGGAAAATAATTGTTTGCGTCACGTGTGGATATCCGGAGTCACCTAGTGCAG,6110 fluorescence intensity (a.u.)

row,Sequence,binding signal
1,TGTTGATTATATTCATGTATTTCTATAATGCTTTACAATTCGGAGTCACCTAGTGCAG,17600 fluorescence intensity (a.u.)
2,CGGGCGACTAATTTTGTAAAATTTTGAAACACAAAATTAGCGGAGTCACCTAGTGCAG,4760 fluorescence intensity (a.u.)
3,GCTTTAATTGGTTTGAGGTTGTATACTATTGGTTCGGCCTCGGAGTCACCTAGTGCAG,35300 fluorescence intensity (a.u.)
4,AAATTATAGATTTAGTGTCAATTTAATCATAAAACTTGGACGGAGTCACCTAGTGCAG,10200 fluorescence intensity (a.u.)
5,TGCACAAATTGGTATAATGATTTCTTGATGTTACAATATTCGGAGTCACCTAGTGCAG,27700 fluorescence intensity (a.u.)
6,TTATCTAATCGCAGATAATTGCAGAGAAACTGTGATCTTTCGGAGTCACCTAGTGCAG,6720 fluorescence intensity (a.u.)
7,ATGACATTTAATTTATGTGTCTATTCATGTCGAGAAGGCTCGGAGTCACCTAGTGCAG,18600 fluorescence intensity (a.u.)
8,ATAATTTTGTTAATTTGTTACATGTATATGATGCATAATACGGAGTCACCTAGTGCAG,32100 fluorescence intensity (a.u.)
9,ATCGCTGTCACGTTTTCCATCATCTTCCCCATCTACACGTCGGAGTCACCTAGTGCAG,3920 fluorescence intensity (a.u.)
10,TATGTTAATTAGGCCGATAGAGCCAAAGTCTCGAACCAAACGGAGTCACCTAGTGCAG,4230 fluorescence intensity (a.u.)
11,ATATATATATATATATATATAGACGTATTCCTGTATCCGCCGGAGTCACCTAGTGCAG,11700 fluorescence intensity (a.u.)
12,ACGTAATTATAATTTATTTTATTATGAGTTGTTTTATCACCGGAGTCACCTAGTGCAG,37000 fluorescence intensity (a.u.)
13,TCTTAATAGAGGGTTTCTAAAATATGTGGGTAATTTGTTGCGGAGTCACCTAGTGCAG,5970 fluorescence intensity (a.u.)
14,AGGAATTGAAGGGTAAAACAGAGGATTGCAAAACACAGGACGGAGTCACCTAGTGCAG,3260 fluorescence intensity (a.u.)
15,GAAATTCAAATTTCATTTGATGTTAAACGCGGATAGGGAGCGGAGTCACCTAGTGCAG,3460 fluorescence intensity (a.u.)
16,ACAAAGATTGAAAATGGTGGTAAATTTACAATGGCCTCTTCGGAGTCACCTAGTGCAG,31100 fluorescence intensity (a.u.)
17,ATTTGCTAATGAACTGAAATTTCTAATCTGAAACTCTGAACGGAGTCACCTAGTGCAG,3820 fluorescence intensity (a.u.)
18,AAACTAATGAATGAATAAACATATTATATATTACCTCTGCCGGAGTCACCTAGTGCAG,7830 fluorescence intensity (a.u.)
19,GTCTGAATAATTGCCACTTAAGCAGAGTACTGAAAAGTTACGGAGTCACCTAGTGCAG,9240 fluorescence intensity (a.u.)
20,CCTACTTAAATTGGCTTAAAACATGCTGGGGCATCAGGTTCGGAGTCACCTAGTGCAG,16100 fluorescence intensity (a.u.)
21,ATCGTAATAGAATATGTCACATTCGGTTTTGGCTCAAGTTCGGAGTCACCTAGTGCAG,5710 fluorescence intensity (a.u.)
